# In paper PMC4336329 (PLoS ONE, 2015):
# Hit rate of the full screen: of about 310,000 compounds, about 2,200 (0.71%) showed an effect of 50% or more. Effects have a minus sign here. This is one part of the list.
# Molecular target: human ether-à-go-go-related gene (hERG) potassium channel (human, UniProt Q12809)
# Assay: primary screen, population patch clamp on CHO cells stably expressing hERG
# human ether-à-go-go-related gene (hERG) potassium channel, sequence (Q12809 whole entry, looked up): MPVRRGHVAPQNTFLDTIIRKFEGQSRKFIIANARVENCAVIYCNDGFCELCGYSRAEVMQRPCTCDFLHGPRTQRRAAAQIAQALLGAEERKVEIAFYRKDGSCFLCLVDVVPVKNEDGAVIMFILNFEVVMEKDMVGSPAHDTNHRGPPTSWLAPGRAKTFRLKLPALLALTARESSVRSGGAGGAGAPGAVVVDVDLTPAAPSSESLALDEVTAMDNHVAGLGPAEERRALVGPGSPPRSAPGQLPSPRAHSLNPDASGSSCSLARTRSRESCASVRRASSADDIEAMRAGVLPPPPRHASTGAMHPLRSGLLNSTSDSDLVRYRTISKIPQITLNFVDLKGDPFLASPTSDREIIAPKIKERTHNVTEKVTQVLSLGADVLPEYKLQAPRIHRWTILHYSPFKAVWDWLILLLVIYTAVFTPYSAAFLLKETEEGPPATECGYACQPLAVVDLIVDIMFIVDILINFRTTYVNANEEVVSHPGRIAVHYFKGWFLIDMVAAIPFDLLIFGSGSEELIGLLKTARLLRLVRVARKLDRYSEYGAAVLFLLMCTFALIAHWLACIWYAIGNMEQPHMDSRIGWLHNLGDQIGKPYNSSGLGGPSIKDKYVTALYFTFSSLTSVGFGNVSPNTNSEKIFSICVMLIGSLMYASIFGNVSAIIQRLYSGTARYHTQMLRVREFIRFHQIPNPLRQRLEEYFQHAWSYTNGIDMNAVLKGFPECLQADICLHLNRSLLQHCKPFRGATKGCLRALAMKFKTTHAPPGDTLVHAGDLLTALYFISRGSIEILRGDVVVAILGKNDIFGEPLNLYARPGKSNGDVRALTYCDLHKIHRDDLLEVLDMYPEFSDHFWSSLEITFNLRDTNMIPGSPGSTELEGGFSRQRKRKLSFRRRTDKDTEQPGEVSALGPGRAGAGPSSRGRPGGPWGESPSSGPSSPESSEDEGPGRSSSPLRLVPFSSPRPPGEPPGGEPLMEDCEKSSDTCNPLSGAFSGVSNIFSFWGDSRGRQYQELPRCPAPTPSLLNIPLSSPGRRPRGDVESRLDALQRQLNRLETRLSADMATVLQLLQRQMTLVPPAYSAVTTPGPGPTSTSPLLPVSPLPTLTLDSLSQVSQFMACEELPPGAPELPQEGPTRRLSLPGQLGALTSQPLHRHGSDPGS
row,SMILES,"hERG current change (%, negative = inhibition) at 1uM [%]"
1,O=C(CN1C(=O)COc2ccccc21)NC1CCCC1,13.6
2,CCOC(=O)C1C(=O)C=C(c2cccs2)CC1c1ccccc1C (centres unmarked),10.6
3,COc1ccc(CNC(=O)C2CCCN(S(=O)(=O)c3ccc4c(c3)C(C)(C)C(=O)N4C)C2)cc1 (centres unmarked),16.5
4,COc1cc(OC)c(N2CC34C=CC(O3)C(C(=O)O)C4C2=O)cc1Cl (centres unmarked),11.7
5,CCCC(c1nnnn1CS(=O)(=O)c1ccc(C)cc1)N1CCC(C(N)=O)CC1 (centres unmarked),7.13
6,CC1CCN(CCOc2cc(Cl)ccc2Cl)CC1,-5.51
7,O=C(Nc1ccc(Oc2ccccc2)cc1)C1CCCN(c2ncccn2)C1 (centres unmarked),6.08
8,COc1ccc(CCNC(=O)C2CC3Cn4c(nc5ccccc54)C3N2Cc2ccccc2)cc1 (centres unmarked),-1.43
9,N#C/C(=C\c1ccc[nH]1)Sc1nc2ccccc2s1,10.1
10,Cc1ccc(NC(=O)CC2SC(=O)N(c3ccccc3)C2=O)cc1 (centres unmarked),9.37
11,Cc1ccccc1C(=O)NC(=S)NC1CCSC1=O (centres unmarked),7.45
12,O=C(Nc1cccc(Cl)c1)Nc1sccc1-c1nc2ccccc2s1,19.6
13,CCn1c(CCNC(=O)c2ccc(Cl)cc2)n[nH]c1=S,4.7
14,O=C(Nc1ccc2c3c(cccc13)CC2)c1ccc(Br)o1,2.94
15,Cc1ccc2nsnc2c1S(=O)(=O)NCc1ccncc1,16.5
16,Cc1c(C(=O)NC2CCCCC2)oc2ccc(F)cc12,11.1
17,CCCC(=O)C1=C(O)C(C(=O)OC)C(C)(C)CC1=NC (centres unmarked),10.8
18,O=C(C1=C(O)C(=O)N(CC2CCCO2)C1c1ccc(Cl)cc1Cl)c1ccco1 (centres unmarked),15.8
19,COCC1CCN(C(=O)C2CCC(=O)N(C3CCCC3)C2)CC1 (centres unmarked),16.1

row,SMILES,"hERG current change (%, negative = inhibition) at 1uM [%]"
1,Cc1[nH]c(=O)[nH]c(=O)c1S(=O)(=O)Nc1cccc(C(F)(F)F)c1,15.2
2,Cc1ccc(/C(=N/Nc2ncnc3ccccc23)C(=O)O)cc1,15.2
3,NC(=O)c1ccccc1NC(=O)c1ccoc1,10.2
4,Cn1c(SCc2cc(=O)[nH]c(C(C)(C)C)n2)nnc1C(F)(F)F,12.5
5,CCCn1c(N)c(C(c2ccc(C(=O)OC)cc2)N2CCN(c3ccccc3)CC2)c(=O)[nH]c1=O (centres unmarked),7.89
6,COc1cccc(NC(=O)C2CCN(S(=O)(=O)c3ccc4c(c3)N(C(C)=O)CCO4)CC2)c1,21.6
7,CCC(c1nnnn1Cc1ccccc1)N1CCN(c2ccc(OC)cc2)CC1 (centres unmarked),1.56
8,O=C(N/N=C\c1ccc(COc2ccc([N+](=O)[O-])cc2)o1)c1cccc(Cl)c1,7.21
9,O=C1c2ccccc2C(Nc2cccnc2)N1Cc1ccc2c(c1)OCO2 (centres unmarked),8.45
10,CCc1nnc(NC(=O)C2Cc3ccccc3CN2S(=O)(=O)CC)s1 (centres unmarked),9.74
11,CN(CCc1ccccn1)C(=O)CCC1CCCN(C(=O)NC2CCCCC2)C1 (centres unmarked),16.5
12,COc1ccc(NC(=O)c2cnn(-c3ccccc3)c2C)cc1,4.57
13,O=C(Nc1cc(=O)[nH]c2ncnn12)c1ccccc1F,13
14,Cc1oc(-c2cccc(Cl)c2)nc1CS(=O)(=O)CC(=O)NCc1ccco1,-3.83
15,C(=N\N1CCN(Cc2ccccc2)CC1)/c1cccnc1,5.72
16,Cc1ccc(Cl)cc1NC(=O)CSC(N)=O,5.48
17,O=C(O)c1ccccc1C(=O)c1ccc(-c2ccccc2)cc1,14.6
18,Cc1[nH]nc(SCC(=O)NCc2ccccc2)c1[N+](=O)[O-],2.83
19,COc1ccc(NC(=O)c2cccnc2Cl)c(S(=O)(=O)N2CCOCC2)c1,2.79

row,SMILES,"hERG current change (%, negative = inhibition) at 1uM [%]"
1,O=C(c1n[nH]c(=O)c2ccccc12)N1CCN(c2ccccc2Cl)CC1,0.0913
2,COc1ccc(CC(NC(C)=O)C(=O)NC2CCN(c3c4c(nc5ncnn35)CCC4)CC2)cc1OC (centres unmarked),4.65
3,C[C@H]1CCC[C@]2(O[C@H](CCO)C[C@@H](O)[C@@H]2O)O1,7.8
4,O=c1oc(-c2ccccc2[N+](=O)[O-])nc2ccccc12,-6.36
5,COc1ccc(N(CC(=O)NCC2CCCO2)S(=O)(=O)c2ccc(C)cc2)cc1OC (centres unmarked),-12.2
6,Cc1ccc(NC(=O)CCn2c(=O)c3cccn3c3ccccc32)c(C)c1,5.59
7,COc1ccc(NC(=O)CC2(Cc3ccccc3)CCOC(C)(C)C2)cc1 (centres unmarked),7.82
8,CN1CCN(c2ccc(NC(=O)c3ccc(-c4ccccc4F)o3)cc2)CC1,-6.66
9,O=C(Oc1ccc2c3c(c(=O)oc2c1)CCC3)c1ccco1,1.61
10,Cc1cc(C)cc(C(=O)NCCC(=O)NCc2cc(=O)n(C)c(=O)n2C)c1,12
11,CCOC(=O)/C(CCC[N+](C)(CC)CC)=N\O.[I-],16.7
12,N=c1c(S(=O)(=O)c2ccc(Br)cc2)cc2c(=O)n3ccccc3nc2n1C1CCCCC1,21.1
13,COc1ccc(C(=O)N/N=C\C(C)=C\c2ccccc2)cc1OC,6.2
14,COc1ccc(Cl)cc1NC(=S)N(Cc1ccc(C(=O)O)cc1)Cc1ccc(OC)c(OC)c1,9.09
15,CC(C)Cn1c(N)c(C(=O)COC(=O)c2cc(-c3ccccc3)nc3ccccc23)c(=O)n(C)c1=O,2.4
16,CCCn1c(=O)c(C(=O)NCc2ccc(OC)c(OC)c2)c(O)c2ccccc21,12
17,Cc1cc([N+](=O)[O-])nn1CC(=O)Nc1nc2ccccc2s1,-13.7
18,Cc1ccccc1-n1c(SCc2c(C)noc2C)nnc1-c1cccnc1,14.8
